Assay results taken from article PMC12136788.
The other results are listed elsewhere or left out.

T1: UNK ZnF1-6 (called full-length) (human, UniProt Q9C0B0 30-357)
T1 sequence: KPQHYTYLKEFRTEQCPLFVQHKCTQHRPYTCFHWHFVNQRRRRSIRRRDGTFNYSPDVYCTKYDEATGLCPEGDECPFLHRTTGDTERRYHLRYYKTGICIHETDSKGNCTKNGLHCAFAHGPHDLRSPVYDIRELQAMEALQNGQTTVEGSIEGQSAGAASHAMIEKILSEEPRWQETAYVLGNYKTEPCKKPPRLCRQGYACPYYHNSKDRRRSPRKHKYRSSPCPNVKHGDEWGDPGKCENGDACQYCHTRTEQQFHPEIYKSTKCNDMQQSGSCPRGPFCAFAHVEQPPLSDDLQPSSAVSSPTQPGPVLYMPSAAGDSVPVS

B1: ENSG00000196396:stop:overlap|stop_codon|ENSG00000196396|stop_codon|NA|stop_codon (ssRNA)
RNA: GGGAGUUCUACAGUCCGACGAUCCUACGGUCCUCACGGCCGGCGCUUACCUCUGCUACAGGUUCCUGUUCAACAGCAACACAUAGCCUGACCCUCCUCCACUCCACCUCCACCCACUGUCCGCCUCUGCCCGCAGAGCCCACGCAACAGAGGAUUGAGCAUCA
B2: chr11:26667019:26671251:-|three_prime_utr|ENSG00000148942|control|control|control (ssRNA)
RNA: GGGAGUUCUACAGUCCGACGAUCACACACACGUGCAAUACACACACACACACACAAACUCCACAUACUUCUUGCCUACUUGUUAGUAGAUAUGUAUAGUUGCCAUUGCUAGAAGACAGGGAUGUCUGGUGCCUAUUUCUACUUCAACAGAGGAUUGAGCAUCA
B3: chr11:47420279:47420382:-|CDS|ENSG00000165916|unk|total|mutant (ssRNA)
RNA: GGGAGUUCUACAGUCCGACGAUCAAACAGGGUGGACAUCCUGGACCCCGCCCUCCUCCGCUCGGGCCGCCUUGACCGCAAGACCGAGUUCCCGAUGCCCAAUGAGGAGGCCCGGGCCAGAAUCAUGCAGAUCCACUCCCGAAACAACAGAGGAUUGAGCAUCA
B4: chr5:6669452:6669553:+|3pUTR|ENSG00000145545|unk|total|mutant (ssRNA)
RNA: GGGAGUUCUACAGUCCGACGAUCCAUCUCAUCUGGAGUUUUUAAAUGCCAUUUGUUUCAGUUGUCUUUAACAACAUAAUAAACCGACUUUGCCAUUUAACAAGGCCGCUCAAAUUCUUUUACUAAUUGUUACAUCGAAACAUUCAACAGAGGAUUGAGCAUCA
B5: chr1:17283265:17283432:+|3pUTR|ENSG00000142619|msi1|FALSE|unique (ssRNA)
RNA: GGGAGUUCUACAGUCCGACGAUCCAUGUGGUUCUCAGACUUGAAUCUUCUCGGCCCCCCAAAAAGAAGGACCUCAUUUCUUAUAGCCUCUCCUGUGAUUCAACACAACCCAUGGAGAUGUCCCCUUCUCACUCUGAAAUCAUCCAACAGAGGAUUGAGCAUCA
B6: chr4:76435395:76435496:+|5pUTR|ENSG00000138771|msi1|FALSE|unique (ssRNA)
RNA: GGGAGUUCUACAGUCCGACGAUCUUUUCUCUCCUAAGAAACAAACUAUGAACUGAUUGUUGAAAAAAAGAAGUAAAAAGUUUUAGCACAGCUUCUCUGUCUCUUCGGGACAAGUUAGAAAAUUCUGAAGUGAGCCGAAGCAUACAACAGAGGAUUGAGCAUCA
B7: chr17:2060671:2060772:-|3pUTR|ENSG00000070366|unk|FALSE|unique (ssRNA)
RNA: GGGAGUUCUACAGUCCGACGAUCCCGUGCUCUCGGGUGGCCUCCACCUGCUCCCUCUCUCCUCACUGGCCUUUCUUUCCGUCUAGCUUCCUCUUCAGGAAAUGUCCUGACUCCCCUCAGCUCCCCCUUCACCCCUCCUUGCCCCAACAGAGGAUUGAGCAUCA
B8: chrX:130625084:130625185:-|3pUTR|ENSG00000165675|msi1|FALSE|unique (ssRNA)
RNA: GGGAGUUCUACAGUCCGACGAUCAGUUCCUUUGAAUUUGUCAGUUCAUUCCUGGAAAAUCUUUUGAGUUAAAAUAAGGAUCCUAGGACAGCACCUCGAACUACAGGCCCUAAAGAGAAAUUGCCUCAAACCACAAGUGCUGUACAACAGAGGAUUGAGCAUCA
B9: chr1:248294618:248295578:-|CDS|ENSG00000177201|control|control|control (ssRNA)
RNA: GGGAGUUCUACAGUCCGACGAUCUGGCUGUGGUGUGCAGAUCUUCUUCCUCCCCACACUGGGUGGUGGAGAGUGCUUCCUCUUAGCAGCCAUGGCCUAUGACCGCUAUGCGGCUGUCUGCCACCCACUCCGAUAUCCCACUCUCAACAGAGGAUUGAGCAUCA
B10: chr16:74449243:74449344:-|3pUTR|ENSG00000090863|msi1|total|mutant (ssRNA)
RNA: GGGAGUUCUACAGUCCGACGAUCUCUCCUAUCCUCCCAUCCUCCAGGCCUGUGGUGUGACUUCUGCCCCGAAGUUCCUACUACCGUGAGUCAUCUGGGGAGAGGCCACUGAAAAGAGGCCUUCCCUUCCCAUUUCCUCCCCUGCAACAGAGGAUUGAGCAUCA
B11: chr11:61799969:61800070:-|3pUTR|ENSG00000149485|msi1|FALSE|unique (ssRNA)
RNA: GGGAGUUCUACAGUCCGACGAUCUUCUUUGCCACCUUUUGGGUGUGGUGUCACCAGCCUGUUUAGCCAAGUAGCUUUGGGCAUAGGCUGCCCAAUCUGAGCAAACACCAGUGAGGCUCUAUUGAGCCAAGACCAAGUCCUCAACAACAGAGGAUUGAGCAUCA
B12: ENSG00000107863:be:win_5501|CDS|ENSG00000107863|bound_else_gene|NA|bound_elsewhere_windowed (ssRNA)
RNA: GGGAGUUCUACAGUCCGACGAUCCUGUAAACCGGUUAAAACCAAAAUGCUCAGCCCAGGACCUUUCCAUCUCAGACUGGCUGGCCAGGGAACGCCUACGCACCAGUACCUCUGACCUUAGCAGAGGAGAAAUCGGAGAUCCCCCAACAGAGGAUUGAGCAUCA
B13: ENSG00000106682:stop:overlap|stop_codon|ENSG00000106682|stop_codon|NA|stop_codon (ssRNA)
RNA: GGGAGUUCUACAGUCCGACGAUCCUUCCCCUGGAAGGUUCAGGAGAGUAUUUGUCGCCUGGUUGCUUUUACAUCAUGCUGAUUAGACCUGCACACCCGGGCAUGAAAUGAGUGUGAUUGCAUCAUUUUCAUAGAACCUAAUGGCAACAGAGGAUUGAGCAUCA
B14: chr15:58589816:58589917:-|3pUTR|ENSG00000137845|unk|FALSE|unique (ssRNA)
RNA: GGGAGUUCUACAGUCCGACGAUCAUUCAUUUGCUGAAGAGCUGGCUUGUACUUUGGCAGGUGUCAUACUUGGUUAUUCUCCUUAGGAUAUUGGCCCAACAAUCUGGGAGUUGUGAAAGGCGCUUCGCUUUUCAGACCUGGGCGCAACAGAGGAUUGAGCAUCA

Biological target: T1, UNK ZnF1-6 (called full-length)
Test: nsRBNS (natural sequence RNA bind-n-seq); RBNS binding buffer (assumed for nsRBNS): 25 mM Tris pH 7.5, 150 mM KCl, 3 mM MgCl2, 0.01% Triton X-100, 500 ug/ml BSA, 20 U/ml SUPERase-In, 4 C; UNK is unkempt and MSI1 is Musashi-1; names of the RNAs are library labels; protein concentration not given here; high values mean tight binding

Binder	binding signal
B1	0.465 enrichment R
B2	0.932 enrichment R
B3	0.632 enrichment R
B4	0.527 enrichment R
B5	0.504 enrichment R
B6	0.731 enrichment R
B7	1.19 enrichment R
B8	0.5 enrichment R
B9	0.604 enrichment R
B10	0.676 enrichment R
B11	0.419 enrichment R
B12	0.673 enrichment R
B13	0.869 enrichment R
B14	0.853 enrichment R
